{
  "source": "ChEMBL document CHEMBL4888484",
  "about": "“Replenishing the malaria drug discovery pipeline: Screening and hit evaluation of the MMV Hit Generation Library 1 (HGL1) against asexual blood stage Plasmodium falciparum ,using a nano luciferase reporter read-out” (2022)",
  "note": "Screen size: about 150,000 compounds; about 540 (0.36%) showed an effect of 50% or more. Some of the results follow.",
  "data": [
    {"system": "Plasmodium falciparum", "test": "Primary screen in NF54 nanoGlo assay, in single point, at 2uM, 72h; a lower Z score goes with more inhibition", "format": "functional, Erythrocyte", "settings": "timepoint 72 hour", "units": {"% Inhibition": "%"}, "values": [
      {"smiles": "O=C(N[C@H]1CC[C@H](O)CC1)N1CCC(Cc2ccc(F)cc2)CC1", "% Inhibition": 0, "Z score": 0.08},
      {"smiles": "CCc1nc2c(N3CCN(C(=O)c4cccc(OC)c4)CC3)ncnc2o1", "% Inhibition": -12, "Z score": 2.12},
      {"smiles": "CN1N=C(C(=O)NCCNc2ncccn2)CCC1=O", "% Inhibition": -5, "Z score": 0.75},
      {"smiles": "COc1cc(Br)ccc1S(=O)(=O)n1cncn1", "% Inhibition": -1, "Z score": 0.14},
      {"smiles": "C[C@@H](C(N)=O)N(C)CCOc1ccccc1Cl", "% Inhibition": 5, "Z score": -0.7},
      {"smiles": "CC(C)c1nc(C(=O)NC2(CN3CCCC3)CCCCC2)cs1", "% Inhibition": -12, "Z score": 2.02},
      {"smiles": "O=C(Cc1cnn(-c2ccccc2)c1)NC1CCCCC1", "% Inhibition": 30, "Z score": -3.88},
      {"smiles": "O=C(c1ccc(F)cc1)N1CCN([C@H](C(=O)N2CCc3ccccc3C2)C2CCCC2)CC1", "% Inhibition": 0, "Z score": 0.02},
      {"smiles": "CC1(C)COCCN1CCNC(=O)N1CC[C@H](Oc2ccccc2Cl)C1", "% Inhibition": -4, "Z score": 0.58},
      {"smiles": "Cc1cc(CN2CCN(C(=O)Nc3ccc(=O)n(C)c3)CC2)on1", "% Inhibition": -7, "Z score": 1.48},
      {"smiles": "Cc1ccccc1NC(=O)C1CCN(c2cc(-c3cccc(F)c3)ncn2)CC1", "% Inhibition": -9, "Z score": 1.62},
      {"smiles": "Cc1ccc(NC(=O)N2[C@@H]3CC[C@H]2CC(NC(=O)c2ccc(F)cc2)C3)c(C)c1", "note": "(stereo partly drawn)", "% Inhibition": -13, "Z score": 2.54},
      {"smiles": "CC(=O)N1CCC(Nc2nc3ccccc3s2)CC1", "% Inhibition": 3, "Z score": -0.37},
      {"smiles": "O=C(NCc1ccc(Cn2ccnc2)cc1)c1ccccc1OCc1cn2ccccc2n1", "% Inhibition": -13, "Z score": 2.41},
      {"smiles": "Cc1ccc(Nc2nc(N)nc(COC(=O)c3cnccn3)n2)cc1", "% Inhibition": -7, "Z score": 1.55},
      {"smiles": "Cc1ncc(S(=O)(=O)N2CC3(CCC3)c3c(F)cccc32)cc1C#N", "% Inhibition": -7, "Z score": 0.89},
      {"smiles": "O=C(c1ccccn1)c1cccc(Br)c1F", "% Inhibition": -9, "Z score": 1.22},
      {"smiles": "Cc1ccc(CN2C(=O)C3CCCCC3C2=O)cc1S(=O)(=O)NCc1cccs1", "note": "(stereo not drawn)", "% Inhibition": -3, "Z score": 0.46},
      {"smiles": "O=C1Cc2cc(C(=O)N3CCN(c4ncccn4)CC3)ccc2N1", "% Inhibition": -6, "Z score": 1.03},
      {"smiles": "CC1CCN(C(=O)CCS(=O)(=O)C2CCCC2)CC1", "% Inhibition": -4, "Z score": 0.56},
      {"smiles": "O=S(=O)([C@H]1C[C@@H]1c1ccccc1)N1CCC(c2nnc3n2CCCC3)CC1", "% Inhibition": -8, "Z score": 1.59},
      {"smiles": "N#Cc1cccc(C(=O)Nc2cc(S(=O)(=O)N3CCOCC3)ccc2Oc2ccc(F)cc2)c1", "% Inhibition": -12, "Z score": 2},
      {"smiles": "CCCc1nnsc1C(=O)N1CCn2nc([C@@H](O)CN(C)C)cc2C1", "% Inhibition": 0, "Z score": -0.03},
      {"smiles": "O=C(Nc1ccc(F)c(Cl)c1)c1oc2ccccc2c1NC(=O)C1CCCC1", "% Inhibition": -5, "Z score": 0.98},
      {"smiles": "Cc1cccc(CNc2nc(-c3ccccc3)no2)c1", "% Inhibition": -12, "Z score": 1.47},
      {"smiles": "O=C(Nc1nc2c(s1)CN(C(=O)c1cc(C3CC3)on1)CC2)C1CCC1", "% Inhibition": -7, "Z score": 0.9},
      {"smiles": "Cn1ccnc1CN1CC[C@@]2(CCCN(CC3CC3)C2=O)C1", "% Inhibition": -28, "Z score": 2.95},
      {"smiles": "CCn1nc([C@H]2CCOC2)nc1-c1cc(C#N)cn1C", "% Inhibition": -12, "Z score": 2.42},
      {"smiles": "Cc1nnsc1CN1C(=O)COc2cccnc21", "% Inhibition": -1, "Z score": 0.28},
      {"smiles": "CC1CN(C(=O)c2ccc(Cl)cc2O)CC(C2CC2)O1", "note": "(stereo not drawn)", "% Inhibition": 1, "Z score": -0.16},
      {"smiles": "O=S(=O)(NC1CCCCCC1)c1ccc2c(c1)OCCCO2", "% Inhibition": 13, "Z score": -1.5},
      {"smiles": "CCc1nc(CCn2cncn2)n(CC(F)(F)F)n1", "% Inhibition": -13, "Z score": 1.66},
      {"smiles": "O[C@@H]1Cc2ccccc2[C@H]1c1ccc2oc(C3CC3)nc2c1", "% Inhibition": -5, "Z score": 0.46},
      {"smiles": "CCOc1cccc(CN2CCOc3ccc(CN4CCC(O)(c5cccnc5)CC4)cc3C2)c1", "% Inhibition": 7, "Z score": -1.13},
      {"smiles": "O=C(c1csc(-c2cccs2)n1)N1CCC1", "% Inhibition": 13, "Z score": -1.48},
      {"smiles": "CCN(CC)c1cc(-c2ccccc2)nc(-c2ccccc2)n1", "% Inhibition": -4, "Z score": 0.48},
      {"smiles": "OCc1ccccc1OCc1csc([C@@H]2CCCO2)n1", "% Inhibition": -4, "Z score": 0.46},
      {"smiles": "O=C(NCc1cccc(Cl)c1O)NC[C@H]1CC12CCOCC2", "% Inhibition": -16, "Z score": 1.79},
      {"smiles": "O=C(OCc1ccccc1)N1CCc2n[nH]c(=O)cc2C1", "% Inhibition": -12, "Z score": 2.05},
      {"smiles": "CN(c1ncc(F)cc1F)S(=O)(=O)c1ccc2c(c1)CCO2", "% Inhibition": -10, "Z score": 1.96},
      {"smiles": "Cc1ccc(C)c2c1CC(C)(C)NC2=O", "% Inhibition": 2, "Z score": -0.28},
      {"smiles": "CC1CN(C(=O)C2CCN(C(=O)Nc3cccnc3)CC2)CC(C)O1", "note": "(stereo not drawn)", "% Inhibition": -6, "Z score": 1.16},
      {"smiles": "COC(=O)[C@@H]1CCCN1C(=O)c1coc(COc2cccc(C(F)(F)F)c2)n1", "% Inhibition": -13, "Z score": 1.18},
      {"smiles": "c1coc(-c2noc(CN3CCCCCC3)n2)c1", "% Inhibition": -12, "Z score": 1.91},
      {"smiles": "Cc1ccc(C2CCCCCN2CC(=O)N2CCCC(C)C2)o1", "note": "(stereo not drawn)", "% Inhibition": 0, "Z score": -0.04},
      {"smiles": "O=C(Nc1ccc(-c2cc(NC(=O)c3ccccc3)n(C(=O)c3ccccc3)n2)cc1)c1ccccc1", "% Inhibition": -6, "Z score": 0.83},
      {"smiles": "COc1cccnc1N(C)C(=O)C1CC12CCc1ccccc12", "note": "(stereo not drawn)", "% Inhibition": -1, "Z score": 0.14},
      {"smiles": "Cc1cc(-c2noc(CC(=O)NCC3CC3)n2)cc2nc[nH]c12", "% Inhibition": 8, "Z score": -1.39},
      {"smiles": "CC(C)COc1ccccc1NCC[C@H]1CCCO1", "% Inhibition": -13, "Z score": 1.77},
      {"smiles": "CC/C=C(\\C)CN1CC[C@H](CNC(=O)c2occc2C)C1", "% Inhibition": -10, "Z score": 1.09},
      {"smiles": "O=C(NC(c1ccccc1)c1ccccc1)N1CC[C@H](Oc2ccncc2Cl)C1", "% Inhibition": 14, "Z score": -2.6},
      {"smiles": "O=C(O)c1cnc(-c2ccccc2)nc1C=Cc1csnn1", "% Inhibition": -5, "Z score": 0.83},
      {"smiles": "CN(C)c1ncccc1CNCc1cc2c(cc1Cl)OCO2", "% Inhibition": -4, "Z score": 0.69},
      {"smiles": "Cc1cc(C(=O)N[C@@H](C)c2cnn(C)c2C)on1", "% Inhibition": -8, "Z score": 1.48},
      {"smiles": "NC(=O)c1cc2c(cc1-c1cc(NCCO)nc3[nH]ccc13)OCO2", "% Inhibition": -1, "Z score": 0.14},
      {"smiles": "CC[C@H](NC(=O)N1CCN(C(=O)c2ccccc2)CC1)c1cccc(C)n1", "% Inhibition": -2, "Z score": 0.29},
      {"smiles": "COc1ccc(C2NN=C(c3c[nH]c4ccccc34)C2O)cc1", "note": "(stereo not drawn)", "% Inhibition": -1, "Z score": 0.13},
      {"smiles": "COc1ccc(CCN2C(=O)[C@H](CC(=O)Nc3ccc4c(c3)ncn4C)N=C2O)cc1", "% Inhibition": 1, "Z score": -0.23},
      {"smiles": "Oc1nc2ccc(Br)cc2c(-c2ccccc2)c1-c1cc(-c2ccccc2)c2cc(Cl)ccc2n1", "% Inhibition": -18, "Z score": 1.61},
      {"smiles": "O=C(c1ccncc1F)N1CCC(=C2CC2)CC1", "% Inhibition": -6, "Z score": 1.02},
      {"smiles": "Cc1cc(N(C)Cc2ccc(-n3cccn3)cc2)ccn1", "% Inhibition": -7, "Z score": 0.95},
      {"smiles": "COc1ccc(N(CC(=O)N2CCc3ccccc32)S(=O)(=O)c2c(C)[nH]c(=O)[nH]c2=O)cc1", "% Inhibition": -4, "Z score": 0.47},
      {"smiles": "COc1ccc(CCC(=O)Nc2n[nH]c3nc4cc(OC)ccc4cc23)cc1", "% Inhibition": 5, "Z score": -0.8},
      {"smiles": "COCc1nc2n(n1)[C@@H](c1ccc(OC)cc1OC)C[C@@H](C)N2", "% Inhibition": -10, "Z score": 1.34},
      {"smiles": "COc1ccc(S(=O)(=O)N2CC[C@@H](CO)[C@@H](O)C2)c2c1CCCC2", "% Inhibition": -13, "Z score": 1.37},
      {"smiles": "CCONC(=O)CCc1cc(Cl)cs1", "% Inhibition": -16, "Z score": 1.4},
      {"smiles": "COc1ccc([C@H]2C3CCCCC3(O)CCN2C(=O)Cc2ccccc2)cc1", "note": "(stereo partly drawn)", "% Inhibition": -3, "Z score": 0.46},
      {"smiles": "O=C(Nc1c(-c2ccc(C(F)(F)F)cc2)n[nH]c1C1CC1)c1cccc(F)c1", "% Inhibition": 0, "Z score": 0.01},
      {"smiles": "O=C(COc1ccc(Cl)cc1Cl)N1CC(c2nc(-c3ccco3)no2)C1", "% Inhibition": 2, "Z score": -0.19},
      {"smiles": "COc1cnc(NC(=O)NCc2nc3c(s2)COCC3)s1", "% Inhibition": 4, "Z score": -0.72},
      {"smiles": "CC(=O)N1c2ccc(F)cc2[C@@H](C)CC12CCCC2", "% Inhibition": 0, "Z score": -0.03},
      {"smiles": "Cc1ccc(NC(=O)C2[C@H]3C=C[C@@]4(O3)C(C(=O)NC3CCCC(C)C3C)N(CCN3CCOCC3)C(=O)[C@@H]24)cc1C", "note": "(stereo partly drawn)", "% Inhibition": 0, "Z score": 0.07},
      {"smiles": "Cc1ccncc1-c1cccc(-c2ccn(CCCF)n2)c1", "% Inhibition": -6, "Z score": 0.88},
      {"smiles": "O=C(Nc1ccc(F)cc1F)[C@@H]1CCCCc2nn(Cc3cccc(F)c3)c(=O)n21", "% Inhibition": -14, "Z score": 1.33},
      {"smiles": "CCn1cc(-c2nnc3cccc(C)n23)c(C)n1", "% Inhibition": -17, "Z score": 1.7},
      {"smiles": "COc1ccc(-c2c(C)nn3c(-c4cccs4)cc(C(F)(F)F)nc23)cc1", "% Inhibition": 0, "Z score": -0.03},
      {"smiles": "N#Cc1cnn2c(NC3CCCCCCC3)c(-c3cccc(Cl)c3)[nH]c12", "% Inhibition": -7, "Z score": 1},
      {"smiles": "O=C(Nc1ccccc1CCc1nc2ccccc2[nH]1)c1ccc(F)c(F)c1", "% Inhibition": -7, "Z score": 0.78},
      {"smiles": "Cn1nnc2c1CCC(NC(=O)N[C@@H]1C[C@H]1c1ccc(Cl)cc1Cl)C2", "note": "(stereo partly drawn)", "% Inhibition": 6, "Z score": -0.86},
      {"smiles": "CCc1cccc(NC(=O)Cn2c(=O)c3c(C(=O)OC)cc(C4CC4)nc3n(C)c2=O)c1", "% Inhibition": 0, "Z score": -0.03},
      {"smiles": "COCc1cccc(C(=O)N2CCn3nc(Cc4ccccc4)cc3C2)n1", "% Inhibition": -16, "Z score": 1.62},
      {"smiles": "Cc1cccnc1NC(=O)C1CCC(Cn2cnnn2)CC1", "note": "(stereo not drawn)", "% Inhibition": -6, "Z score": 0.74},
      {"smiles": "Cc1ccc(C)c(OCC(=O)c2ccc3c(c2)N([C@@H](C)C(=O)NC2CCCCC2)C(=O)CO3)c1", "% Inhibition": -10, "Z score": 0.97},
      {"smiles": "CCC1=NS(=O)(=O)c2cccnc2N1c1cccc(C(F)(F)F)c1", "% Inhibition": -4, "Z score": 0.43}
    ]}
  ]
}
